# Results published in PubChem BioAssay AID651820 (National Center for Advancing Translational Sciences (NCATS), 2012).
# Several values for one entry are separate records, joined by “and”; a condition that tells them apart may be missing. Identical values can stand only once. Among all 340,000 compounds or so, about 12,000 (3.5%) were called active. The inconclusive results got no clear call from the source; some entries with a clear call stand among them for comparison. Calls follow the shape of the dose curve; as a rule, active = well fitted inhibition curve with a large enough effect; inconclusive = small, poorly fitted or top-dose-only effect, or another doubt; inactive = no such curve, though single readings can be large or run the other way. Where the call is inconclusive, the potency comes from a doubtful curve fit.
# Assay: qHTS Assay for Inhibitors of Hepatitis C Virus (HCV)
# Conditions: Huh7.5.1 HCVcc-Cre (HCVcc is cell-culture hepatitis C virus) infection, luciferase reporter, 44 h; activity change, negative = inhibition: at 41.8 µM (top of the series)
# Method in brief: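 Compounds are dispensed onto cells plated 4 h earlier at 1,000 per well, with HCVcc-Cre virus (about 0.5 moi) added next. Following 44 h of culture, luminescent signal is measured for 15 sec after 15 min with substrate at room temperature.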
# % is scaled to controls: 0 for no effect and ±100 for the full control effect; potency is read from the fitted curve at half-maximal effect; tags tell the direction and shape of the fitted curve.
SMILES,"activity change, negative = inhibition",Potency
Cc1ccc(NC2=Nc3ccccc3CS2)cc1,inactive: -12.3%,–
N/C(=N\OC(=O)CCC1CCCC1)c1cccnc1,inactive: 38.9%,–
COc1cc(CNc2ccc3[nH]c(=O)[nH]c3c2)ccc1OCc1ccc(F)cc1,–,"inconclusive: 12.6 µM [inhibitor, single point]"
Cc1cc(CNC(=O)COc2ccc(F)cc2F)c2ccccc2n1,–,"inconclusive: 10 µM [inhibitor, partial curve]"
Cc1cc(/C=C(\C#N)C(=O)NCc2ccco2)c(C)n1C1CCCC1,–,"inconclusive: 11.2 µM [inhibitor, partial curve]"
COC(=O)[C@]1(Cc2ccccc2)N[C@H](CN(C)S(=O)(=O)c2ccc(C(C)(C)C)cc2)[C@@H]2C(=O)N(C)C(=O)[C@@H]21,–,"inconclusive: 1.58 µM [inhibitor, full curve]"
Cc1nnsc1C(=O)NNc1ccc(C(C)C)cc1,inactive: -12.7%,–
Clc1cccc(-c2nc(NCc3cccnc3)c3ccccc3n2)c1,–,active: 2.82 µM
CCOC(=O)c1c(NC(=O)/C=C/C(=O)O)sc(C)c1-c1ccc(C)c(C)c1,inactive: -1.44%,–
CC(Cc1ccccc1Sc1ccccc1)N(C)C (centres undefined),inactive: 9.82%,–
CCn1cc(C(=O)NCCN(C)CCc2ccccc2)c(=O)c2cc(S(=O)(=O)N(C)C)ccc21,–,"inactive and inconclusive: 7.94 µM [inhibitor, partial curve]"
CCN(CC)CCOC(=O)c1ccc(N/C=C(/C#N)c2nc(-c3ccc4c(c3)OCO4)cs2)cc1,–,active: 10 µM
N#C/C(C(=O)N1CCCC1)=C1/N=C(N)c2ccccc21,inactive: 17.6%,–
CCc1ccc(NC(=O)C(=O)NCC2CCCN2S(=O)(=O)c2ccccc2)cc1 (centres undefined),–,"inconclusive: 11.2 µM [inhibitor, partial curve]"
O=C(Cc1c(Cl)cccc1Cl)Nc1cccc(S(=O)(=O)N2CCOCC2)c1,–,"inconclusive: 25.1 µM [inhibitor, single point]"
C=CC[C@@H](CC(=O)N[C@H](CO)Cc1ccccc1)C(=O)N[C@@H](COC(=O)[C@@H](CC=C)Cc1ccc(F)cc1)Cc1ccccc1,–,"inconclusive: 11.2 µM [inhibitor, single point]"
O=C(CCNc1ccc(Cc2ccncc2)cc1)c1cccc([N+](=O)[O-])c1,inactive: -13.6%,–
COc1ccc(C(CCN2CCCCC2)c2c(O)cc(OC)cc2OC)cc1 (centres undefined),inactive: -9.87%,–
O=c1c2ccccc2nc(/C=C/c2ccc([N+](=O)[O-])o2)n1-c1ccc(O)cc1,–,"inconclusive: 2.24 µM [inhibitor, full curve]"
COC(=O)c1ccccc1Oc1ccc(NC(=O)CCCl)cc1,inactive: 1.36%,–
CCNc1nc(NCC)nc(N/N=C/c2ccc(Br)cc2)n1,–,active: 11.2 µM
CN(c1ccccc1)S(=O)(=O)c1cccc(C(=O)NCCc2c[nH]c3ccccc23)c1,–,active: 10 µM
S=c1[nH]cnc2scc(-c3ccc(Br)cc3)c12,–,"inconclusive: 20 µM [inhibitor, single point]"

SMILES,"activity change, negative = inhibition",Potency
COc1ccc(CCNC(=O)CSc2nc3[nH]ncc3c(=O)n2-c2ccc(Cl)cc2Cl)cc1OC,–,"inconclusive: 31.6 µM [inhibitor, single point]"
O=C(NC1CCCCC1)C(c1ccc(O)cc1)N(CC1CCCO1)C(=O)C1COc2ccccc2O1 (centres undefined),inactive: -1.82%,–
Cc1ccc2c(Cl)c(C(=O)NCc3cccnc3)sc2c1,–,"inconclusive: 14.1 µM [inhibitor, single point]"
O=C(/C=C/c1ccc(O)c(O)c1)c1ccccc1O,–,"inconclusive: 3.55 µM [inhibitor, full curve]"
C=CCn1c(SC(C)C(=O)Nc2ccc(F)c(F)c2F)nnc1C1CC1 (centres undefined),–,"inconclusive: 14.1 µM [inhibitor, single point]"
CCN1CCN(Cc2cc(Br)cc(Br)c2O)CC1,–,"inconclusive: 11.2 µM [inhibitor, partial curve]"
Cc1nc(-c2c(-c3ccc(O)cc3O)noc2C(F)(F)F)cs1,–,"inconclusive: 11.2 µM [inhibitor, partial curve]"
CC(c1ccccc1)n1c(SCC(=O)N2CC(=O)Nc3ccccc32)nc2ccccc2c1=O (centres undefined),–,"inconclusive: 31.6 µM [inhibitor, single point]"
Cc1ccc(NC(=O)c2nnn(-c3ccc4c(c3)OCCO4)c2N)cc1,–,"inconclusive: 12.6 µM [inhibitor, partial curve]"
COc1ccc(Cl)cc1NC(=O)COC(=O)Cc1cc(OC)c(OC)c(OC)c1,–,"inconclusive: 10 µM [inhibitor, partial curve]"
C=CC[C@H](CC(=O)N(CCO)Cc1ccccc1)C(=O)N[C@H](COC(=O)[C@H](CC=C)CC(=O)OC(C)(C)C)Cc1ccccc1,–,active: 11.2 µM
CN(C)CC1CCC/C(=C\c2ccc(OC(=O)/C=C/c3ccccc3)cc2)C1=O (centres undefined),–,"inconclusive: 20 µM [inhibitor, single point]"
CC(C)Cc1cc(CNC(=O)C2CCC(=O)N(Cc3cccc(C(F)(F)F)c3)C2)on1 (centres undefined),–,"inconclusive: 31.6 µM [inhibitor, single point]"
Cc1nn(-c2ccccc2)c(N2CCCC2)c1/C=N/NC(=O)c1cccc(S(=O)(=O)Nc2ccc(Cl)cc2)c1,–,"inconclusive: 11.2 µM [inhibitor, partial curve, poor fit]"
NC(=O)CSc1nnc(-c2cccc(S(=O)(=O)N3CCOCC3)c2)n1C1CCCCCC1,inactive: -9.69%,–
CC1=CC(C)(C)N(S(=O)(=O)c2ccc(C)cc2)c2cc(C)ccc21,–,"inconclusive: 31.6 µM [inhibitor, single point]"
CCCCn1c(N)c(N(CC(C)C)C(=O)C2CCN(S(=O)(=O)c3ccc(C)cc3C)CC2)c(=O)[nH]c1=O,–,"inconclusive: 20 µM [inhibitor, single point]"
CSc1ncccc1C(=O)Nc1nc2ccc(F)cc2s1,–,"inconclusive: 17.8 µM [inhibitor, partial curve]"
Cc1ccc(CN2C(=O)C(Cc3ccccc3)Nc3ncnc(N4CCCCC4)c32)cc1 (centres undefined),–,"inconclusive: 10 µM [inhibitor, partial curve]"
Cc1ccc(NC(=O)CCC(=O)c2cccs2)cc1F,inactive: 5.03%,–
Cc1cc(Cl)ccc1OCC(=O)N(Cc1ccco1)c1c(N)n(Cc2ccccc2)c(=O)[nH]c1=O,–,"inconclusive: 11.2 µM [inhibitor, partial curve]"
C=C1CCC2[C@](C)(CO)[C@H](O)CC[C@@]2(C)[C@@H]1/C=C/C1=CCOC1=O (some centres undefined),–,"inconclusive: 10 µM [inhibitor, partial curve]"
CSc1ccc(C(=O)C2CCCN(C(=O)Cn3cnnn3)C2)cc1 (centres undefined),inactive: 37.8%,–

SMILES,"activity change, negative = inhibition",Potency
O=C(CSC1=NCCN1)NC12CC3CC(CC(C3)C1)C2,–,"inconclusive: 31.6 µM [inhibitor, single point]"
COc1ccc(S(=O)(=O)N2CCC3CC2c2cc(N4CCOCC4)ccc23)cc1 (centres undefined),inactive: 5.2% [at 8.37 µM],–
Cc1ccc(-n2nc3c(c2NC(=O)c2ccc(F)c(F)c2)CS(=O)(=O)C3)cc1,inactive: 12.3%,–
CCCCNC(=S)NCc1ccc2[nH]c(C)cc2c1,–,"inconclusive: 22.4 µM [inhibitor, single point]"
Cc1cc(Oc2ccc(N)cn2)cc(C)c1Cl,–,"inconclusive: 10 µM [inhibitor, partial curve]"
CCN(CC)c1ccc(C(=O)c2ccccc2C(=O)O)c(O)c1,inactive: 4.77%,–
Cc1cc(C)cc(-n2ccnc2SCC(=O)Nc2ccc3c(c2)OCCO3)c1,–,"inconclusive: 31.6 µM [inhibitor, single point]"
C=CCSc1nc(=O)n2cccc(C)c2n1,–,"inconclusive: 14.1 µM [inhibitor, single point]"
CCN(CC)S(=O)(=O)c1ccc(C(C)NC(=O)Cc2c[nH]c3ccccc23)cc1 (centres undefined),inactive: 1.14%,–
Cc1ccc(Cn2c(C(CO)Nc3nc(-c4ccc(Cl)c([N+](=O)[O-])c4)cs3)nc3ccccc32)cc1 (centres undefined),–,"inconclusive: 31.6 µM [inhibitor, single point]"
COc1cccc(C(=O)O/N=C(\C)c2cnccn2)c1,inactive: -1.27%,–
CCOc1ccc(NC(=O)COC(=O)COc2cccc3c2OC(C)(C)C3)cc1,inactive: 31%,–
O=C1CSC(c2ccc([N+](=O)[O-])cc2)N1C1CCCCC1 (centres undefined),inactive: 8.25%,–
Cc1ccc(Oc2ccc(NC(=O)Cn3ccsc3=N)cc2)cc1,–,"inconclusive: 2.24 µM [inhibitor, partial curve]"
Cc1ccc(CNC(=O)C2CCC(CNc3nc(=S)[nH]c4ccccc34)CC2)cc1 (centres undefined),–,"inconclusive: 31.6 µM [inhibitor, single point]"
Oc1c(Br)cc(Br)cc1C=Nc1ccc2[nH]ncc2c1,–,"inconclusive: 12.6 µM [inhibitor, single point]"
Cc1nn2c(NCc3ccccn3)cc(C(C)(C)C)nc2c1-c1ccccc1,–,active: 2.51 µM
COc1ccc(NS(=O)(=O)c2ccc3oc(Nc4ccc5c(c4)OCCO5)nc3c2)cc1,–,active: 3.98 µM
Cn1c(=O)c2c(nc(CN3CCc4ccccc4C3)n2Cc2ccccc2F)n(C)c1=O,–,"inconclusive: 7.94 µM [inhibitor, partial curve, poor fit]"
Cn1cccc1-c1nc2ccc(NC(=O)c3ccco3)cc2[nH]1,–,"inconclusive: 31.6 µM [inhibitor, single point]"
O=C(c1cccc(F)c1)N1CCC(c2nc3ccccc3s2)CC1,–,"inconclusive: 22.4 µM [inhibitor, single point]"
COc1ccc(/C(C)=N/OC/C(O)=C(\C#N)c2nc3ccccc3[nH]2)cc1OC,inactive: 9.82%,–
COc1ccc(OC)c2c1sc(=NC(=O)C1CC1)n2C,–,active: 14.1 µM
